Source: PubChem BioAssay AID488969 (Vanderbilt High Throughput Screening Facility, 2010)
Over roughly 110,000 compounds, “z-score” has its median near -0.1; the highest 2% begin near 2. The list shows a part of the results. Calls of active or inactive are those of the source.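 How the source made its calls: active means z-score in the third read window above 3 or below -3; inactive means the rest.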

The compounds below were run against Metabotropic glutamate receptor 8 (Rattus norvegicus) (UniProt P70579) (assay: rat mGluR8 modulators via GIRK flux, primary screen, cell-based, thallium flux, HTS (AID 488969)). Conditions: HEK293 rat mGluR8, GIRK (G protein-gated inwardly rectifying potassium channel) thallium flux, FluoZin2; at 10 µM; stronger effect = higher value; submaximal glutamate (EC20) added with thallium.
Sequence of UniProt P70579 (P70579 whole entry, looked up): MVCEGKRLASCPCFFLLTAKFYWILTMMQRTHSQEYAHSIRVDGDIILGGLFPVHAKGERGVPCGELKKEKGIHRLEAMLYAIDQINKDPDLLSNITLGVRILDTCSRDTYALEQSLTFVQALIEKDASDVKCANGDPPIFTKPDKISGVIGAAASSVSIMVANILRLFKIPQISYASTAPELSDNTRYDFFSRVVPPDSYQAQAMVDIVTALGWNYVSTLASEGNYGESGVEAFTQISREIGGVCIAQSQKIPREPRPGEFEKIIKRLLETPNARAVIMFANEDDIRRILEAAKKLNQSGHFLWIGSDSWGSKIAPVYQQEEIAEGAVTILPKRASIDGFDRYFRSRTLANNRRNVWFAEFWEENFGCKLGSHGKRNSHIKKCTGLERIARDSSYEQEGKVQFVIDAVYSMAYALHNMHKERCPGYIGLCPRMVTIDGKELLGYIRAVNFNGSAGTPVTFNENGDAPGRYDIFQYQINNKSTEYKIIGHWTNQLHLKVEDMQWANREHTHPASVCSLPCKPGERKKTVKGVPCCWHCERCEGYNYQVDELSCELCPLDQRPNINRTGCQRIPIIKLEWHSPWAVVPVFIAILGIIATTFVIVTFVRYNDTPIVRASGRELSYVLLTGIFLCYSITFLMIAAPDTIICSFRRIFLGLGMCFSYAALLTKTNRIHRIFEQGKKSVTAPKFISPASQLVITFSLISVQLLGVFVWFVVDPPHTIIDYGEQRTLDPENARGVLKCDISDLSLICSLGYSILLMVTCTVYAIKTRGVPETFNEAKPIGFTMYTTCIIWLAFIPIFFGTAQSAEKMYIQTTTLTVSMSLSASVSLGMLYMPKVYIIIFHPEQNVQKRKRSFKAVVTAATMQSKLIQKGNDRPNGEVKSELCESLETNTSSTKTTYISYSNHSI

Point of comparison: O=C(O)CCCC(=O)Nc1ccccc1C(=O)N1CCCC1, z-score 0.00246. Against it:
- O=C(Nc1ccc2c(c1)OCO2)N1CCN(C/C=C/c2ccccc2)CC1 — lower, -0.663
- Cc1ccc(C)c(NS(=O)(=O)c2ccc(OCC(=O)NCc3ccco3)cc2)c1 — higher, 0.0658
- COc1ccc(Cn2nnnc2C(c2ccccc2OC)N2CCC(C(N)=O)CC2)cc1 (centres undefined) — lower, -0.0593
- CC(=O)Nc1cccc(NC(=O)C2CCCN2C(=O)Nc2ccccc2C)c1 (centres undefined) — higher, 0.294
- Cc1ccc(S(=O)(=O)C2CCOC2=O)cc1 (centres undefined) — higher, 0.328
- Cc1c(N=C2NC(=O)/C(=C/c3cccc([N+](=O)[O-])c3)S2)c(=O)n(-c2ccccc2)n1C — lower, -0.318
- CC(NCc1ccc2c(c1)OCO2)C(=O)N1CCc2ccccc21 (centres undefined) — lower, -1.01
- CCC(CC)c1nnc(NC(=O)[C@@H](NC(=O)c2cccc(C)c2)C(C)C)s1 — lower, -0.254
- Cc1nc(C)c(C(=O)C2=C(O)C(=O)N(CCCn3ccnc3)C2c2ccccc2)s1 (centres undefined) — lower, -0.201
- CCOC(=O)COc1ccc(N)cc1CC(NC(C)=O)(C(=O)OCC)C(=O)OCC — higher, 0.0447
- Cc1noc(C)c1CSc1nc2sc(C)c(C)c2c(=O)n1-c1ccccc1 — higher, 0.579
- O=C(CCN1C(=O)c2ccccc2C1=O)Nc1sc2c(c1C(=O)NCC1CCCO1)CCC2 (centres undefined) — lower, -0.294
- CCCCN(C)CCC(=O)Nc1ccc(C)cc1 — higher, 0.613
- Cc1ccccc1NC(=O)CCSc1nnnn1-c1ccccc1 — lower, -0.202
- CC(C)c1ccc(C2=NN(c3ccccc3)C(=O)CC2)cc1 — lower, -0.202
- COc1cc(OC)cc(C(=O)NCCNC(=O)c2ccccc2)c1 — higher, 0.114
- COc1ccc(NC(=O)CN(c2ccccc2)S(=O)(=O)N(C)C)cc1OC — higher, 0.192
- CCOC(=O)N1CCN(C(=O)CS(=O)(=O)c2cn(Cc3cccc(F)c3)c3ccccc23)CC1 — higher, 0.0194
- CC(C)[C@H](NC(=O)c1ccccc1)C(=O)OCC(=O)Nc1ccc2c(c1)OCCO2 — lower, -0.764
- Cc1ccc(-c2cc(C(=O)N/N=C\c3cnn(C)c3C)c3ccccc3n2)cc1C — lower, -0.154
- Cc1cc(SCC(=O)NCCN2C(=O)CSC2=O)nc2ccccc12 — lower, -0.0438
- CC1CC2(CCCCC2)Nc2c1ccc1ccccc21 (centres undefined) — lower, -0.169
- Cc1[nH]c2ccccc2c1C(=O)C(=O)NCCc1ccc(S(N)(=O)=O)cc1 — lower, -0.303
- O=C(/C=C/c1ccc(OC2CSC2)cc1)c1ccccc1 — higher, 0.105
- CC1COC(c2cccn2Cc2ccccc2Cl)=N1 (centres undefined) — lower, -0.306
- CCOc1ccc2nc(NC(=O)Nc3ccccc3)sc2c1 — higher, 0.853
- COc1ccc(C(=O)CSc2n[nH]c(N)n2)cc1 — lower, -0.205
- Cc1ccc(C)c(NC(=O)C2C(c3ccccc3)C2(Cl)Cl)c1 (centres undefined) — lower, -0.251
- CCOc1ccc(Br)cc1S(=O)(=O)Nc1cccc(S(=O)(=O)N(C)c2ccccc2)c1 — higher, 0.113
- O=C(CSc1nc(-c2ccco2)cc(C(F)(F)F)n1)N1CCN(Cc2ccccc2)CC1 — lower, -0.179
- COc1ccc(-c2nnc(-c3ccc(N(C)C)cc3)o2)cc1 — higher, 0.133
- O=C1CC(c2ccccc2)SC(N(c2ccccc2)c2ccccc2)=N1 (centres undefined) — lower, -0.197
- O=C(Nc1nnc(C(F)(F)F)s1)c1ccc(N2C(=O)C3C4C=CC(C4)C3C2=O)cc1 (centres undefined) — lower, -0.186
- COc1cc(C2N3CC4(C)CN2CC(C)(C3)C4)ccc1O (centres undefined) — lower, -0.0528
- Cc1csc(Sc2ccc([N+](=O)[O-])cc2C(=O)OCC(=O)NC(=O)NC(C)(C)C)n1 — lower, -0.292
- C=CCOCC(O)CS(=O)(=O)Cc1ccc(Cl)cc1 (centres undefined) — higher, 0.269
- CCOC(=O)c1c(C)oc2ccc(OCC(=O)C(C)(C)C)cc12 — lower, -1.03
- COc1cccc(N2C(=O)C(CC(=O)Nc3ccc(F)cc3)N(C3CCCCC3)C2=O)c1 (centres undefined) — lower, -0.212
- Cc1nn(C)c(C(=O)N2CCc3ccccc32)c1Br — lower, -0.207
- COc1ccccc1N(C)S(=O)(=O)c1ccc(C(=O)Nc2ccc3nc(C)sc3c2)cc1 — lower, -0.263
- Fc1ccccc1CSc1ncn[nH]1 — higher, 0.409
- CCCc1nc(SCC(=O)Nc2ccc(S(=O)(=O)N(C)C)cc2)c2ccccc2n1 — lower, -0.587
- O=C(CSc1nnc(CNC(=O)c2cccs2)o1)NC1CCCC1 — higher, 0.182
- O=C(c1ccccc1)C1CCc2occc2C1=O (centres undefined) — lower, -0.0301
- Cc1ccc2[nH]c3c(c2c1)CCc1cn[nH]c1-3 — higher, 0.5
- O=C(c1ccc(Br)o1)N(Cc1ccccc1)c1ccccn1 — higher, 0.118
- O=C(NCc1ccc2c(c1)OCO2)c1cccc(N2CCCC2=O)c1 — higher, 0.0899
- CN(C)c1ccc(/C=C2\C(=O)N(c3ccc([N+](=O)[O-])cc3)N=C2N2CCOCC2)cc1 — lower, -0.0708
- N#CCCn1cc(/C=C(\C#N)c2nc3ccccc3s2)c(-c2ccc(F)cc2)n1 — lower, -0.278
- COc1ccc(/C=C2/C(=O)N(CC3CCCO3)C(=S)N2C)c(OC)c1 (centres undefined) — lower, -0.162
- Cc1ccc(NC(=O)c2noc3c2CC(C(C)(C)C)CC3)cc1 (centres undefined) — higher, 0.319
- COc1ccc(NC(=O)CSc2ncnc3c2sc2ccccc23)c(OC)c1 — lower, -0.108
- CCSc1nnc(Nc2ccc(C)cc2)s1 — higher, 0.627
- Nc1nnc(-c2cc3ccccc3oc2=O)s1 — lower, -0.182
- C=CCNS(=O)(=O)CC12CCC(CC1=O)C2(C)C (centres undefined) — higher, 0.146
- COc1ccc(-c2ccc(-c3noc(-c4ccccc4F)n3)c(OC)n2)cc1 — lower, -0.018
- Cc1ccc(S(=O)(=O)NCC2CCCO2)cc1[N+](=O)[O-] (centres undefined) — higher, 0.0235
- CCOc1ccc(OCCOCCN2CCc3ccccc3C2)cc1 — higher, 0.126
- COc1ccc(CN(C(=O)c2oc3ccccc3c2C)C2CCS(=O)(=O)C2)cc1 (centres undefined) — lower, -0.764
- CCCS(=O)(=O)N1CCN(c2ccccn2)CC1 — lower, -0.275
- CC/C(=N/NC(=O)CCC(=O)Nc1ccccc1OC)c1ccccc1 — higher, 0.0762
- O=C(C1CCCN1S(=O)(=O)c1ccc(Cl)c(Cl)c1)N1CCOCC1 (centres undefined) — lower, -0.626
- COc1ccc(CNc2ccc3c(c2)ncn3-c2ccccc2OC)cc1 — higher, 0.73
- CCN(CC)C(=O)CSc1nc2ccc(NC(=O)CSc3nccn3C)cc2s1 — lower, -0.187
- Cc1ccc(-n2c(O)c(C=NC3CCS(=O)(=O)C3)c3ccccc3c2=O)cc1C (centres undefined) — lower, -0.607
- Cc1ccc(-n2nnc3c(=O)n(CC(=O)NCC4CCCO4)cnc32)cc1 (centres undefined) — lower, -0.0412
- Cn1c(=O)[nH]c(=O)c2c1nc(N1CCOCC1)n2CC(O)COc1ccc2ccccc2c1 (centres undefined) — higher, 0.0675
- CC(C)c1ccc(NC(=O)C(=O)c2cn(CC(=O)N3CCCCC3)c3ccccc23)cc1 — higher, 0.0678
- CCn1nc(CC(=O)Nc2ccc(-n3cnnn3)c(OC)c2)c2ccccc2c1=O — lower, -0.728
- CCN(CCO)Cc1csc2cc(C)ccc12 — higher, 0.237
- COC(=O)Cc1csc(Nc2ccccc2Cl)n1 — higher, 0.0565
- CN(C)C(=O)c1snnc1-c1ccccc1 — lower, -0.386
- Cc1ccc(N(C(C)C(=O)Nc2ccc3c(c2)OCO3)S(C)(=O)=O)cc1 (centres undefined) — lower, -0.175
- Cn1c(=O)c2c(nc(Br)n2Cc2ccccc2Cl)n(C)c1=O — lower, -1.51
- COc1cc(/C=C2/SC(=S)NC2=O)ccc1OS(=O)(=O)c1ccc(C)cc1 — lower, -2.12
- COc1cccc(NS(=O)(=O)c2cc(C)ccc2OC)c1 — lower, -0.206
- CN(C)/C=N/c1ncc(C(=O)c2ccc(Cl)cc2)s1 — lower, -0.0806
- N/C(=N\OS(=O)(=O)c1ccccc1)c1ccccn1 — lower, -0.247
- CCOc1ccc(C(=O)NC(=S)Nc2ccccc2N2CCOCC2)cc1Br — lower, -0.0259
- CCCCCCCCOC(=O)CCc1c(C)[nH]c(=S)[nH]c1=O — higher, 0.653
- COc1ccc(CC(=O)Nc2cccc(C(=O)Nc3ccccc3C(=O)O)c2)cc1OC — lower, -0.414
- O=C(COc1ccc(-c2nnc(N3CCCCC3)c3ccccc23)cc1)N1CCCCC1 — lower, -1.43
- Cc1cc2c(cc1C)N(C(=O)CSc1nncn1C)C(C)(C)c1ssc(=S)c1-2 — higher, 0.234
- COc1ccc(N2CCN(C(=O)NC34CC5CC(CC(C5)C3)C4)CC2)cc1 — lower, -0.0964
- COc1ccc2cc(-c3cc(C(=O)O)c4ccccc4n3)ccc2c1 — lower, -0.468
- CCN(CC)S(=O)(=O)c1cccc(NC(=O)c2ccc(-n3nc(C)cc3C)cc2)c1 — lower, -1.73
- Cc1nnc(SCC(=O)N2CC(=O)Nc3ccccc32)n1Cc1ccccc1 — lower, -0.151
- CCn1cc([N+](=O)[O-])c(C(=O)Nc2nc(-c3ccc(C)c(C)c3)c(C)s2)n1 — lower, -0.159
- COc1cccc(C(CC(=O)NCC2CCCO2)NS(=O)(=O)c2ccc(C)cc2)c1OC (centres undefined) — higher, 0.165
- CCOC(=O)N1CCC(NC(=O)CNS(=O)(=O)c2ccc(Br)s2)CC1 — lower, -0.0328
- COC(=O)c1sccc1NC(=O)CSc1ccc(Cl)cc1 — higher, 0.289
- N#Cc1ccc(C(=O)N/N=C/c2cn(CC(=O)O)c3ccccc23)c(F)c1 — lower, -0.248
- COc1ccc(C)cc1NS(=O)(=O)c1ccc(Br)s1 — higher, 0.369
- CCc1cc(-c2n[nH]c(C)c2Oc2ccc(C(C)C)cc2)c(O)cc1O — lower, -0.516
- O=C(C1CCCN(Cc2cccnc2)C1)N1CCCCC1 (centres undefined) — lower, -0.256
- CCC(=O)Nc1ccc(/C(C)=N\NC(=O)c2ccc(C)s2)cc1 — lower, -0.483
- COC(=O)c1c(C(=O)OC)c(C)n(Cc2ccco2)c1C — lower, -0.275
- Cc1ccc(OCC(=O)NC2CCCC2)c(C)c1 — lower, -0.271
- Cc1cc(C)c2c(n1)sc1c(-c3ccccc3)c(C#N)c(N)nc12 — lower, -0.2
- Cc1cc(C)c(C#N)c(SCc2[nH]nc3c2C(c2ccccc2)C(C#N)=C(N)O3)n1 (centres undefined) — lower, -0.243
- CC(C)n1c(CN2CCN(C)CC2)nc2c1c(=O)n(C)c(=O)n2C — higher, 0.0901
- CCOc1cccc(C(=O)Nc2cnn(Cc3ccccc3)c2)c1 — lower, -0.148
- COc1cc(OC)c(C2N(C)c3ccccc3N2C)cc1OC — lower, -0.038
- O=C(CSCc1ccccc1Cl)NN1C(=O)c2ccccc2C1=O — lower, -0.182
- O=C(COc1ncnc2ccc(Br)cc12)NCc1ccc2c(c1)OCO2 — lower, -0.00987
- Cc1ccc(-c2nn3c(C)nnc3s2)cc1NC(=O)c1ccc(OC(C)C)cc1 — lower, -1.43
- Cc1cc(NC(=O)CSc2nc(C3CC3)nc3sc4c(c23)CCC(C)C4)no1 (centres undefined) — higher, 0.482

In the case of CCC/C(=N/NC(=O)c1csc(C)c1C)c1ccc(Cl)s1, the z-score is reported as active: 5.92.
